# Source: PMC12350791
# A number of entries come with more than one value. The other results are left out here. The source may hold further records. Some protein pairs were linked at several places, one record each.
# How the values were obtained:
# Experiment in all cases: cross-linking mass spectrometry
# Conditions in all cases: DSBSO, in cells or nuclear extract, not told apart
# [1] = biological target: ACTR10 (UniProt Q9NZ32)
# [2] = biological target: ATP5PO (UniProt P48047)
# [3] = biological target: BCLAF1 (UniProt Q9NYF8)
# [4] = biological target: THRAP3 (UniProt Q9Y2W1)
# [5] = biological target: BROX (UniProt Q5VW32)
# [6] = biological target: CCT2 (UniProt P78371)
# [7] = biological target: CCT4 (UniProt P50991)
# [8] = biological target: TCP1 (UniProt P17987)
# [9] = biological target: CHCHD3 (UniProt Q9NX63)
# [10] = biological target: CLTC (UniProt Q00610)
# [11] = biological target: COPA (UniProt P53621)
# [12] = biological target: COX4I1 (UniProt P13073)
# [13] = biological target: CPSF2 (UniProt Q9P2I0)
# [14] = biological target: EBNA1BP2 (UniProt Q99848)
# [15] = biological target: EEF1D (UniProt P29692)
# [16] = biological target: EEF1G (UniProt P26641)
# [17] = biological target: ERLIN2 (UniProt O94905)
# [18] = biological target: FLOT2 (UniProt Q14254)
# Sequence of UniProt Q14254 (Q14254 whole entry): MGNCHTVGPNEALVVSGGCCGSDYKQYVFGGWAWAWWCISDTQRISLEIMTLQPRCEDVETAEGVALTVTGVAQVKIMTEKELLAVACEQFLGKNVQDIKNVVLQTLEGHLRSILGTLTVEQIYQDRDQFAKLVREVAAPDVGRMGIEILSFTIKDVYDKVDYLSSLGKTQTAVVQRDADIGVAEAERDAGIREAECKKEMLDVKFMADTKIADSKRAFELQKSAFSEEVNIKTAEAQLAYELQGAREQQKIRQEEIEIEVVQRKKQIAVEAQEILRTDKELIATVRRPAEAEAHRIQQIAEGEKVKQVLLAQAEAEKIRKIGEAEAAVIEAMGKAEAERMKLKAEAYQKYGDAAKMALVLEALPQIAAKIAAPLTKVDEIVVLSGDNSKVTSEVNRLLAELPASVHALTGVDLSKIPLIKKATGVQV
# [19] = biological target: HNRNPAB (UniProt Q99729)
# [20] = biological target: HNRNPD (UniProt Q14103)
# [21] = biological target: HNRNPM (UniProt P52272)
# [22] = biological target: KIF21A (UniProt Q7Z4S6)
# [23] = biological target: LBR (UniProt Q14739)
# [24] = biological target: LMNB1 (UniProt P20700)
# [25] = biological target: MCM5 (UniProt P33992)
# [26] = biological target: MCM6 (UniProt Q14566)
# [27] = biological target: MCM7 (UniProt P33993)
# Sequence of UniProt P33993 (P33993 whole entry): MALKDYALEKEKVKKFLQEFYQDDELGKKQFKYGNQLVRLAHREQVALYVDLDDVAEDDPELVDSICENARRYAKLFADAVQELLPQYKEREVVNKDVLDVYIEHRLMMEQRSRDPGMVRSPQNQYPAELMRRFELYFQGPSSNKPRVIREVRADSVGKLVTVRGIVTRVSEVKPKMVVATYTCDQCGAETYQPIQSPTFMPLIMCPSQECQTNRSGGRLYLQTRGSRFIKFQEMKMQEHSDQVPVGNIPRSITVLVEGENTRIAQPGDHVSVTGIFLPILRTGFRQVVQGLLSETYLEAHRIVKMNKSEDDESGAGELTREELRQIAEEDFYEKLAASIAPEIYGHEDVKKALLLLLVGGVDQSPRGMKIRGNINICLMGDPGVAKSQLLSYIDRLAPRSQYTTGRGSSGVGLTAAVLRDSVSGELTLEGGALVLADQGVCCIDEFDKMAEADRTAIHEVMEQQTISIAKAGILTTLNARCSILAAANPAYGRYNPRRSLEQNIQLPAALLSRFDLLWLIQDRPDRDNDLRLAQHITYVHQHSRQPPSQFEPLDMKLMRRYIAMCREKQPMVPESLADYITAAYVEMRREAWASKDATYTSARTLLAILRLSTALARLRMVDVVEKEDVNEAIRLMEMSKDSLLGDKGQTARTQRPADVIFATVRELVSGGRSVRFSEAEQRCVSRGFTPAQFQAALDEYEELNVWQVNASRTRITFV
# [28] = biological target: NDUFA5 (UniProt Q16718)
# [29] = biological target: NDUFA7 (UniProt O95182)
# [30] = biological target: NDUFAF4 (UniProt Q9P032)
# [31] = biological target: NUP54 (UniProt Q7Z3B4)
# [32] = biological target: NUP58 (UniProt Q9BVL2)
# [33] = biological target: NUP88 (UniProt Q99567)
# [34] = biological target: PHB2 (UniProt Q99623)
# Sequence of UniProt Q99623 (Q99623 whole entry): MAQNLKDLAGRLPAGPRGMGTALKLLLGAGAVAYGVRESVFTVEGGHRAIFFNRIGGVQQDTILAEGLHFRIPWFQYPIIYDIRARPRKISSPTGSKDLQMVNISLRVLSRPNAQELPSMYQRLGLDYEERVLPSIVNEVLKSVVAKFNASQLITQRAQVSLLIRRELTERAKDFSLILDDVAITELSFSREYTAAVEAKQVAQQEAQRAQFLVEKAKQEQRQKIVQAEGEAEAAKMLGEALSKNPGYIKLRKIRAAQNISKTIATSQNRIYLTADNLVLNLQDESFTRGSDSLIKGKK
# [35] = biological target: PHF5A (UniProt Q7RTV0)
# [36] = biological target: SF3B5 (UniProt Q9BWJ5)
# [37] = biological target: PSMD5 (UniProt Q16401)
# [38] = biological target: SF3A1 (UniProt Q15459)
# Sequence of UniProt Q15459 (Q15459 whole entry): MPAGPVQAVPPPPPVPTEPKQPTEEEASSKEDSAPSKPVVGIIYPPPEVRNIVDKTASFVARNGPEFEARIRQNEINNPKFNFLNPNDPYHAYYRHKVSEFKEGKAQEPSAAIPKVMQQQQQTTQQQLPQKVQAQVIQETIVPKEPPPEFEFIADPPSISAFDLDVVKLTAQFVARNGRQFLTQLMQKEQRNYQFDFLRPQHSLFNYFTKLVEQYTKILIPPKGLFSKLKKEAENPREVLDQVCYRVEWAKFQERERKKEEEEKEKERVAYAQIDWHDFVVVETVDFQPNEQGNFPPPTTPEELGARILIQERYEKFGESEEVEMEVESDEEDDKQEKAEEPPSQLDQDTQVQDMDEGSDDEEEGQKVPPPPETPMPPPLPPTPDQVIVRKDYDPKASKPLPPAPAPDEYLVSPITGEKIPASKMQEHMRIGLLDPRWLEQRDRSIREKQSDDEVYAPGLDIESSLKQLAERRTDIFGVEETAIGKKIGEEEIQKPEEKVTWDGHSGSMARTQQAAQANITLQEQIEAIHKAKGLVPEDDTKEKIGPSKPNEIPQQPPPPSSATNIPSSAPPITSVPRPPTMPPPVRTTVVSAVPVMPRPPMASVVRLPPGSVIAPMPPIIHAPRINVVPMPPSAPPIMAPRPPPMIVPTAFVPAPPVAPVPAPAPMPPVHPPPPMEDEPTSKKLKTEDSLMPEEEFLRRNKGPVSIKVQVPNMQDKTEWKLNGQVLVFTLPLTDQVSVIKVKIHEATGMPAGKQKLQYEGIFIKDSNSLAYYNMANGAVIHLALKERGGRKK
# [39] = biological target: SF3A3 (UniProt Q12874)
# [40] = biological target: SMC4 (UniProt Q9NTJ3)
# Sequence of UniProt Q9NTJ3 (Q9NTJ3 whole entry): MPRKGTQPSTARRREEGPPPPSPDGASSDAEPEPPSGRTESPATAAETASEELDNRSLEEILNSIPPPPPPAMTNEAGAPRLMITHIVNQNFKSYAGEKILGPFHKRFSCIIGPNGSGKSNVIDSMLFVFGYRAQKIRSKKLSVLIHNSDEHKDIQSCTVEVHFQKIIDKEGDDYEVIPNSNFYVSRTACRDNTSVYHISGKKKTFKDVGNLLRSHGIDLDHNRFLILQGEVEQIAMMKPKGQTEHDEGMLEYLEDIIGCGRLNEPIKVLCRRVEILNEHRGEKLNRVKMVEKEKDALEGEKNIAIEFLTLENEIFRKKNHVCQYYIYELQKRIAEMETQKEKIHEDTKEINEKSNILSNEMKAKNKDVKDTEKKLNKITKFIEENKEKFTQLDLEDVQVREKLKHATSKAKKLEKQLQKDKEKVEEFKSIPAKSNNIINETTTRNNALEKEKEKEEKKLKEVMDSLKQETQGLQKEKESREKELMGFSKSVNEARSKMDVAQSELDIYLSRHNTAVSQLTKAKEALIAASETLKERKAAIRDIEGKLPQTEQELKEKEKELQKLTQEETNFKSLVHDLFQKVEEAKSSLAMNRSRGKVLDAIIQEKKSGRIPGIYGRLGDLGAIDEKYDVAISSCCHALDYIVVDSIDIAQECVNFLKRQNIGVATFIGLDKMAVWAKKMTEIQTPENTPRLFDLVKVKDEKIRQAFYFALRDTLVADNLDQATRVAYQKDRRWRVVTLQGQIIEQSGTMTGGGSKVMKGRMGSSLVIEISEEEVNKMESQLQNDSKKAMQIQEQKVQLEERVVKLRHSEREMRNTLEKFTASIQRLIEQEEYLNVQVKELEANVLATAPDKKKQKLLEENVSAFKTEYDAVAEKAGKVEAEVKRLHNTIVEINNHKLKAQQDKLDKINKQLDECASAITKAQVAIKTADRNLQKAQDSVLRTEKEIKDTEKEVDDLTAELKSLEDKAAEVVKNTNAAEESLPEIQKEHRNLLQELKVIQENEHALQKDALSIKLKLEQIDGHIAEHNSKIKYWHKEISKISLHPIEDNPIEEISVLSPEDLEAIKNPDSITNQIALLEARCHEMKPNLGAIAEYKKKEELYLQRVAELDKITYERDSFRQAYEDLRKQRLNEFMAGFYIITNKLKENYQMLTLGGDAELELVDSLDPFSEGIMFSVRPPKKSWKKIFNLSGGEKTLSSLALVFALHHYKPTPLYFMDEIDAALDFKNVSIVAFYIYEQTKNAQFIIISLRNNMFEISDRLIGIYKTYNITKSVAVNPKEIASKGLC
# [41] = biological target: SNRNP40 (UniProt Q96DI7)
# [42] = biological target: SNRPD3 (UniProt P62318)
# Sequence of UniProt P62318 (P62318 whole entry): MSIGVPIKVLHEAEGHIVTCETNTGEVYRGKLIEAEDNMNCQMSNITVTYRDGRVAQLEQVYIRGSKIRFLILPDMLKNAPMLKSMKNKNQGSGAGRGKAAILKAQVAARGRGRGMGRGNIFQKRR
# [43] = biological target: SPCS1 (UniProt Q9Y6A9)
# Sequence of UniProt Q9Y6A9 (Q9Y6A9 whole entry): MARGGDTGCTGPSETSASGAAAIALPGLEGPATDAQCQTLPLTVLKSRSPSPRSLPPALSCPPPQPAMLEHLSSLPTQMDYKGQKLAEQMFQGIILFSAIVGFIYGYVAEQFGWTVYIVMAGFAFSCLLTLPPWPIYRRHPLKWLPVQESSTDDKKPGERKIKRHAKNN
# [44] = biological target: SPTAN1 (UniProt Q13813)
# [45] = biological target: SRP9 (UniProt P49458)
# Sequence of UniProt P49458 (P49458 whole entry): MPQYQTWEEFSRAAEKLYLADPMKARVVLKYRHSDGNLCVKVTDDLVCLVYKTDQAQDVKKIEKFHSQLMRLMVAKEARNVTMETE
# [46] = biological target: STIP1 (UniProt P31948)
# [47] = biological target: THOC1 (UniProt Q96FV9)
# [48] = biological target: TMED5 (UniProt Q9Y3A6)
# [49] = biological target: XRCC5 (UniProt P13010)
# [50] = biological target: YWHAZ (UniProt P63104)
# Sequence of SNRPB2 (P08579 whole entry): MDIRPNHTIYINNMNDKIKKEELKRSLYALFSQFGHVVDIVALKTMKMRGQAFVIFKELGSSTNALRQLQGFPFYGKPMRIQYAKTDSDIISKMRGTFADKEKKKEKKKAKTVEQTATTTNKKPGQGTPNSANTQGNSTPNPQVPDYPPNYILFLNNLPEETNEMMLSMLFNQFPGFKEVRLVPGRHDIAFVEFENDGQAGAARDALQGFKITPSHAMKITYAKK
# Sequence of SRP14 (P37108 whole entry): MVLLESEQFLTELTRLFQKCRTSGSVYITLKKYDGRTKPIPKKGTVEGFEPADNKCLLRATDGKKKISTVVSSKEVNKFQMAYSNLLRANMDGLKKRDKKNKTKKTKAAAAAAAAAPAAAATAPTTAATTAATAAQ
# Sequence of NUP54, Q7Z3B4 (Q7Z3B4 whole entry): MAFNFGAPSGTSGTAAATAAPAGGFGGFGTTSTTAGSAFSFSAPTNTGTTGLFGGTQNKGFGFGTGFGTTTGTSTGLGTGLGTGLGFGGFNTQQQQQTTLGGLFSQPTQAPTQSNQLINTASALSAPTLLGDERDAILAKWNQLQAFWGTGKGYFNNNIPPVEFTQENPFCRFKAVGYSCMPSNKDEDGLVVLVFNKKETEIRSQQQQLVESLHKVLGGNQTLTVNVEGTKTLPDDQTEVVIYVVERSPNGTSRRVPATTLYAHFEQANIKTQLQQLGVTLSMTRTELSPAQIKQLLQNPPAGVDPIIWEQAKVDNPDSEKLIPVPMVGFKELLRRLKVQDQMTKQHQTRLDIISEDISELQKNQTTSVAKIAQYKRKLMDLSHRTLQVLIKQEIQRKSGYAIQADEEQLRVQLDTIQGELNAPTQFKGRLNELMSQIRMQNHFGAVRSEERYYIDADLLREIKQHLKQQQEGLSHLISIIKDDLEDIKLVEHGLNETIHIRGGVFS
# Sequence of PDCD5 (O14737 whole entry): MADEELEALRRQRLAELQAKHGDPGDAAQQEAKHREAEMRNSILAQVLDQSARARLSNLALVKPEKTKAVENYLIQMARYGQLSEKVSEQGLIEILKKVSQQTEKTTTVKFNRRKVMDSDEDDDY
substance,measurement,setting,value
"RPL14, P50914",cross-linked residues,[1],K132 - K334 and K137 - K334
"ATP5PB, P24539",cross-linked residues,[2],K221 - K199 and K249 - K192
"ERH, P84090",cross-linked residues,[3],K12 - K593 and K90 - K637 and K90 - K676
same,cross-linked residues,[4],K90 - K551 and K90 - K668 and K90 - K688 and K90 - K697
"TCEA1, P23193",cross-linked residues,[5],K19 - K334 and K55 - K334
"CCT4, P50991",cross-linked residues,[6],K21 - K119 and K21 - K120 and K21 - K522 and K292 - K272
"CCT5, P48643",cross-linked residues,[6],K64 - K522 and K223 - K402 and K232 - K248 and K232 - K250 and K265 - K248 and K265 - K250 and K265 - K263 and K265 - K272 and K265 - K284 and K275 - K248 and K275 - K263 and K279 - K284 and K368 - K248 and K368 - K402 and K370 - K342 and K392 - K82
"TCP1, P17987",cross-linked residues,[7],K126 - K55 and K538 - K21 and K541 - K79
"PDCD5, O14737",cross-linked residues,[7],K63 - K395 and K110 - K395
same,cross-linked residues,[8],K63 - K541 and K98 - K538
"IMMT, Q16891",cross-linked residues,[9],K451 - K45 and K516 - K136
"CLTA, P09496",cross-linked residues,[10],K136 - K1441 and K242 - K1535
"COPB1, P53618",cross-linked residues,[11],K712 - K631 and K949 - K631
"COX5B, P10606",cross-linked residues,[12],K86 - K29 and K86 - K53
"CPSF1, Q10570",cross-linked residues,[13],K116 - K459 and K1421 - K459
"BRIX1, Q8TDN6",cross-linked residues,[14],K31 - K127 and K276 - K33
"EEF1G, P26641",cross-linked residues,[15],K212 - K107 and K219 - K17 and K219 - K107 and K227 - K17 and K227 - K107 and K434 - K107
"EEF1B2, P24534",cross-linked residues,[16],K176 - K434 and K185 - K277
"ERLIN1, O75477",cross-linked residues,[17],K228 - K241 and K234 - K232
"FLOT1, O75955",cross-linked residues,[18],K54 - K160 and K54 - K169 and K166 - K160 and K219 - K211 and K340 - K350 and K422 - K390
"HNRNPD, Q14103",cross-linked residues,[19],K197 - K82 and K197 - K86 and K197 - K118
"HNRNPDL, O14979",cross-linked residues,[20],K142 - K197 and K197 - K197 and K302 - K251
"HNRNPU, Q00839",cross-linked residues,[20],K565 - K165 and K592 - K197
"MATR3, P43243",cross-linked residues,[21],K146 - K381 and K146 - K651
"PSMD3, O43242",cross-linked residues,[22],K315 - K847 and K404 - K847
"C1QBP, Q07021",cross-linked residues,[23],K91 - K64 and K91 - K123
"LMNA, P02545",cross-linked residues,[24],K144 - K157 and K171 - K181
"MCM3, P25205",cross-linked residues,[25],K435 - K471 and K435 - K696
"MCM4, P33991",cross-linked residues,[26],K549 - K205 and K600 - K486 and K837 - K517
same,cross-linked residues,[27],K220 - K96 and K409 - K236 and K627 - K596
"NDUFA7, O95182",cross-linked residues,[28],K80 - K46 and K102 - K67
"NDUFS3, O75489",cross-linked residues,[29],K56 - K80 and K56 - K93
same,cross-linked residues,[30],K217 - K107 and K232 - K73
"NUP62, P37198",cross-linked residues,[31],K435 - K428 and K498 - K482 and K498 - K489
same,cross-linked residues,[32],K371 - K288 and K371 - K291
"NUP54, Q7Z3B4",cross-linked residues,[32],K321 - K291 and K338 - K278 and K345 - K278 and K398 - K330 and K482 - K278 and K482 - K288 and K489 - K310 and K489 - K320
"NUP214, P35658",cross-linked residues,[33],K726 - K592 and K800 - K663
"PHB1, P35232",cross-linked residues,[34],K83 - K200 and K128 - K147 and K186 - K97 and K202 - K216 and K202 - K262 and K208 - K236
"SF3B3, Q15393",cross-linked residues,[35],K137 - K13 and K137 - K95
same,cross-linked residues,[36],K109 - K17 and K137 - K17
"PSMC2, P35998",cross-linked residues,[37],K422 - K147 and K422 - K461
"SF3A3, Q12874",cross-linked residues,[38],K69 - K223 and K201 - K251 and K219 - K55 and K390 - K55
"SNRPA1, P09661",cross-linked residues,[39],K179 - K69 and K191 - K69 and K221 - K69
"PHF5A, Q7RTV0",cross-linked residues,[36],K13 - K17 and K95 - K17
"SMC2, O95347",cross-linked residues,[40],K286 - K988 and K348 - K928 and K900 - K998 and K900 - K1009 and K911 - K1009 and K911 - K1017 and K930 - K1037
"SNW1, Q13573",cross-linked residues,[41],K153 - K349 and K170 - K349
"SNRPB2, P08579",cross-linked residues,[42],K93 - K31 and K93 - K78 and K93 - K84
"SPCS2, Q15005",cross-linked residues,[43],K50 - K143 and K169 - K143 and K191 - K143
"SPTBN1, Q01082",cross-linked residues,[44],K292 - K2404 and K462 - K2098 and K659 - K1911 and K784 - K1698 and K853 - K1698 and K1011 - K1591 and K1156 - K1486 and K1466 - K1132 and K1485 - K930 and K1525 - K824 and K1525 - K909 and K1532 - K909 and K1632 - K718 and K1632 - K846 and K2054 - K441
"SRP14, P37108",cross-linked residues,[45],K55 - K76 and K74 - K76 and K78 - K76 and K95 - K60
"HSP90AB1, P08238",cross-linked residues,[46],K435 - K486 and K435 - K513 and K491 - K337 and K624 - K446 and K624 - K486
"THOC2, Q8NI27",cross-linked residues,[47],K970 - K528 and K1062 - K133
"BCLAF1, Q9NYF8",cross-linked residues,[4],K599 - K558 and K599 - K602
"TMED9, Q9BVK6",cross-linked residues,[48],K160 - K141 and K160 - K164
"XRCC6, P12956",cross-linked residues,[49],K114 - K325 and K189 - K603 and K317 - K282 and K570 - K195 and K570 - K469
"YWHAQ, P27348",cross-linked residues,[50],K9 - K85 and K85 - K9
"YWHAB, P31946",cross-linked residues,[50],K11 - K85 and K87 - K9
